# Results from the supplement of paper PMC8728848.
# The other results are listed elsewhere or left out.
# Experiments:
# Test in all cases: glycan array binding signal (z-score within array); higher = stronger binding
# Conditions in all cases: glycan notation: IUPAC condensed, linker removed
# GlcNAc(b1-3)Man = target: GlcNAc(b1-3)Man
# Procedure, shortened: (§1)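 Glycan array binding is given as a within-array Z-score, which can be read as non-binding when negative. The arrays, 3228 of them, came from the Consortium for Functional Glycomics database and were retained only where the protein sequence was available. Z-scores were averaged across arrays of the same protein sequence at different concentrations or buffers and across linkers.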
# [1] = target: GlcNAc(b1-3)[GlcNAc(b1-4)][GlcNAc(b1-6)]GlcNAc
# Procedure, shortened: as §1
# [2] = target: GlcNAc(b1-3)[GlcNAc(b1-6)]Gal(b1-4)GlcNAc
# Procedure, shortened: as §1
# [3] = target: GlcNAc(b1-3)[GlcNAc(b1-6)]GalNAc
# Procedure, shortened: as §1
# [4] = target: GlcNAc(b1-4)Gal(b1-4)GlcNAc
# Procedure, shortened: as §1
# GlcNAc(b1-4)GlcNAc = target: GlcNAc(b1-4)GlcNAc
# Procedure, shortened: as §1
# [5] = target: GlcNAc(b1-4)GlcNAc(b1-4)GlcNAc
# Procedure, shortened: as §1
# [6] = target: GlcNAc(b1-4)GlcNAc(b1-4)GlcNAc(b1-4)GlcNAc(b1-4)GlcNAc
# Procedure, shortened: as §1
# [7] = target: GlcNAc(b1-4)GlcNAc(b1-4)GlcNAc(b1-4)GlcNAc(b1-4)GlcNAc(b1-4)GlcNAc
# Procedure, shortened: as §1
# [8] = target: GlcNAc(b1-4)[GlcNAc(b1-6)]GalNAc
# Procedure, shortened: as §1
# [9] = target: GlcNAc(b1-6)Gal(b1-4)GlcNAc
# Procedure, shortened: as §1
# GlcNAc(b1-6)GalNAc = target: GlcNAc(b1-6)GalNAc
# Procedure, shortened: as §1
# [10] = target: GlcNAc6S(b1-3)Gal(b1-4)GlcNAc
# Procedure, shortened: as §1
# Kdn(a2-3)Gal(b1-3)GalNAc = target: Kdn(a2-3)Gal(b1-3)GalNAc
# Procedure, shortened: as §1
# Kdn(a2-3)Gal(b1-3)GlcNAc = target: Kdn(a2-3)Gal(b1-3)GlcNAc
# Procedure, shortened: as §1
# Kdn(a2-3)Gal(b1-4)Glc = target: Kdn(a2-3)Gal(b1-4)Glc
# Procedure, shortened: as §1
# Kdn(a2-3)Gal(b1-4)GlcNAc = target: Kdn(a2-3)Gal(b1-4)GlcNAc
# Procedure, shortened: as §1
# [11] = target: Kdn(a2-3)Gal(b1-4)[Fuc(a1-3)]GlcNAc
# Procedure, shortened: as §1
# Kdn(a2-6)Gal(b1-4)GlcNAc = target: Kdn(a2-6)Gal(b1-4)GlcNAc
# Procedure, shortened: as §1
# [12] = target: Man(a1-2)Man(a1-2)Man(a1-3)Man
# Procedure, shortened: as §1
# [13] = target: Man(a1-2)Man(a1-2)Man(a1-6)[Man(a1-3)]Man
# Procedure, shortened: as §1
# Man(a1-2)Man(a1-3)Man = target: Man(a1-2)Man(a1-3)Man
# Procedure, shortened: as §1
# [14] = target: Man(a1-2)Man(a1-3)[Man(a1-2)Man(a1-6)]Man
# Procedure, shortened: as §1
# [15] = target: Man(a1-2)Man(a1-3)[Man(a1-2)Man(a1-6)]Man(a1-6)[Man(a1-2)Man(a1-2)Man(a1-3)]Man
# Procedure, shortened: as §1
# [16] = target: Man(a1-2)Man(a1-3)[Man(a1-2)Man(a1-6)]Man(a1-6)[Man(a1-2)Man(a1-2)Man(a1-3)]Man(b1-4)GlcNAc(b1-4)GlcNAc
# Procedure, shortened: as §1
# [17] = target: Man(a1-2)Man(a1-3)[Man(a1-6)]Man(a1-6)[Man(a1-2)Man(a1-3)]Man(b1-4)GlcNAc(b1-4)GlcNAc
# Procedure, shortened: as §1
# [18] = target: Man(a1-2)Man(a1-6)[Man(a1-3)]Man(a1-6)[Man(a1-2)Man(a1-2)Man(a1-3)]Man
# Procedure, shortened: as §1
# [19] = target: Man(a1-2)Man(a1-6)[Man(a1-3)]Man(a1-6)[Man(a1-2)Man(a1-2)Man(a1-3)]Man(b1-4)GlcNAc(b1-4)GlcNAc
# Procedure, shortened: as §1
# Man(a1-3)[Man(a1-6)]Man = target: Man(a1-3)[Man(a1-6)]Man
# Procedure, shortened: as §1
# [20] = target: Man(a1-3)[Man(a1-6)]Man(a1-6)[Man(a1-2)Man(a1-3)]Man(b1-4)GlcNAc(b1-4)GlcNAc
# Procedure, shortened: as §1
# [21] = target: Man(a1-3)[Man(a1-6)]Man(a1-6)[Man(a1-3)]Man
# Procedure, shortened: as §1
# [22] = target: Man(a1-3)[Man(a1-6)]Man(a1-6)[Man(a1-3)]Man(b1-4)GlcNAc(b1-4)GlcNAc
# Procedure, shortened: as §1
# [23] = target: Man(a1-3)[Man(a1-6)]Man(b1-4)GlcNAc(b1-4)GlcNAc
# Procedure, shortened: as §1
# [24] = target: Man(a1-3)[Man(a1-6)]Man(b1-4)GlcNAc(b1-4)[Fuc(a1-6)]GlcNAc
# Procedure, shortened: as §1
# Man(a1-6)Man = target: Man(a1-6)Man
# Procedure, shortened: as §1
# Man(b1-4)GlcNAc = target: Man(b1-4)GlcNAc
# Procedure, shortened: as §1
# MurNAc(b1-4)GlcNAc = target: MurNAc(b1-4)GlcNAc
# Procedure, shortened: as §1
# Neu5Ac(a2-3)Gal = target: Neu5Ac(a2-3)Gal
# Procedure, shortened: as §1
binder,measurement,setting,value
Tamarinin (protein) CDDSARAGNIVVYWGQGGSDNSEGSLKEACKSGHYNMIVLQQLIVYDDGRDPDLNLGAHCSDCTKLEEQIKYCQNKDIKILLQIGQVVPTQEDVKDVTKNLSEYLLKNFFSGKSGPLGEVYLNGIDIASVPEGNNLKFDELVEALNDSSTERRIYLSASPLCVYPDYYLNKAIQTEKLDFLFVQFFYQNPCIYTEGNPENLFEAMKTWTKNVPESMIFMALPATPNLDGYIPPRVLNKEILPAVSEASNFAGVMIFDRYFDRFRKYSSKIK,glycan array binding signal (z-score),GlcNAc(b1-3)Man,0.095
same,glycan array binding signal (z-score),[1],-0.144
same,glycan array binding signal (z-score),[2],-0.549
same,glycan array binding signal (z-score),[3],-0.175
same,glycan array binding signal (z-score),[4],-0.247
same,glycan array binding signal (z-score),GlcNAc(b1-4)GlcNAc,-0.047
same,glycan array binding signal (z-score),[5],0.61
same,glycan array binding signal (z-score),[6],0.015
same,glycan array binding signal (z-score),[7],0.114
same,glycan array binding signal (z-score),[8],-0.392
same,glycan array binding signal (z-score),[9],-0.474
same,glycan array binding signal (z-score),GlcNAc(b1-6)GalNAc,0.307
same,glycan array binding signal (z-score),[10],-0.331
same,glycan array binding signal (z-score),Kdn(a2-3)Gal(b1-3)GalNAc,-0.07
same,glycan array binding signal (z-score),Kdn(a2-3)Gal(b1-3)GlcNAc,-0.357
same,glycan array binding signal (z-score),Kdn(a2-3)Gal(b1-4)Glc,0.233
same,glycan array binding signal (z-score),Kdn(a2-3)Gal(b1-4)GlcNAc,-0.382
same,glycan array binding signal (z-score),[11],-0.027
same,glycan array binding signal (z-score),Kdn(a2-6)Gal(b1-4)GlcNAc,-0.441
same,glycan array binding signal (z-score),[12],0.086
same,glycan array binding signal (z-score),[13],14.1
same,glycan array binding signal (z-score),Man(a1-2)Man(a1-3)Man,0.032
same,glycan array binding signal (z-score),[14],-0.253
same,glycan array binding signal (z-score),[15],0.539
same,glycan array binding signal (z-score),[16],-0.478
same,glycan array binding signal (z-score),[17],-0.495
same,glycan array binding signal (z-score),[18],-0.298
same,glycan array binding signal (z-score),[19],0.144
same,glycan array binding signal (z-score),Man(a1-3)[Man(a1-6)]Man,0.04
same,glycan array binding signal (z-score),[20],-0.295
same,glycan array binding signal (z-score),[21],0.27
same,glycan array binding signal (z-score),[22],-0.186
same,glycan array binding signal (z-score),[23],-0.38
same,glycan array binding signal (z-score),[24],0.156
same,glycan array binding signal (z-score),Man(a1-6)Man,0.096
same,glycan array binding signal (z-score),Man(b1-4)GlcNAc,-0.404
same,glycan array binding signal (z-score),MurNAc(b1-4)GlcNAc,-0.096
same,glycan array binding signal (z-score),Neu5Ac(a2-3)Gal,-0.207
